# Results reported in PubChem BioAssay (Tox21).
# “And” between values parts separate entries of the source, which are not always exact repeats. Equal values may be shown once. Inconclusive results, whose numbers are uncertain, are shown with a selection of clear calls. For part of these data: Potencies of inconclusive entries are doubtful fits and often do not repeat. More than one record can exist for a structure, and the calls need not agree. The source made the active and inactive calls. Unless noted, the call rests on the fitted dose curve; in most records, active means well fitted curve in the direction sought with a large enough effect in the repeat runs; inconclusive means weak or mixed curves; inactive means no such curve, though single readings can be large; an effect the other way counts as inactive or inconclusive.
# Legend:
# [1] = qHTS assay to identify small molecule antagonists of the androgen receptor (AR) signaling pathway using the MDA cell line in the presence of 0.5 nM R1881 - cell viability counter screen (AID 1259242); further: potency means the concentration at half of the fitted maximal effect; nearly all actives have a fitted effect of over 45% in size
# Procedure, shortened: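 Live-cell protease fluorescence, CellTiter-Fluor, 30 min at 37C. Cells: MDA-kb2, 3,000/well, preincubated 5 hr. Compounds plus 0.5 nM R1881 final, 16 hr, 37C, 0% CO2.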
# [2] = qHTS assay to identify small molecule agonists of the sonic hedgehog signaling (Shh) pathway - cell viability counter screen (AID 1259366); further: nearly all actives have a fitted effect of over 50% in size; further: potency means the concentration at half of the fitted maximal effect
# Procedure, shortened: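 Same-well cytotoxicity read. Gli1-Luc reporter 3T3 cells; compounds 24hr, 37C/5% CO2; CellTiter-Fluor fluorescence.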
# [3] = biological target: Estrogen receptor beta (Homo sapiens) (UniProt Q92731); test: qHTS assay to identify small molecule antagonists of the estrogen receptor beta (ER-beta) signaling pathway (AID 1259378; active means well fitted inhibition curve with a large enough effect in the signal ratio in the repeat runs, not every such curve was filed as active; inconclusive means weak or mixed curves, or effect the other way; inactive means no such curve, though single readings can be large or run the other way; the % refers to the signal ratio; further: potency means the concentration at half of the fitted maximal effect); conditions: ER-beta-UAS-bla HEK293T, beta-lactamase FRET ratio, 16 h; activity, negative = inhibition: at 92.4 µM (top of the series) unless noted
# Procedure, shortened: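 Antagonist mode: compounds added to beta-lactamase reporter HEK293T ER-beta-UAS cells stimulated with E2 (1nM final), 16 hr at 37C. LiveBLAzer B/G FRET substrate, 2 hours room temperature, fluorescence read-out.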
# [4] = qHTS assay to identify small molecule antagonists of the sonic hedgehog signaling (Shh) pathway - cell viability counter screen (AID 1259367); further: potency means the concentration at half of the fitted maximal effect; nearly all actives have a fitted effect of over 55% in size
# Procedure, shortened: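 Viability was read by CellTiter-Fluor fluorescence in the same wells, reagent added 23 hr into compound treatment and incubated 1 hr at 37C. The 3T3 Gli1-Luc reporter cells (2,000/well) received conditioned medium after compound and ran 24 hr.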
# [5] = qHTS assay to identify small molecule antagonists of the sonic hedgehog signaling (Shh) pathway (AID 1259369; calls by dose curve; further: potency means the concentration at half of the fitted maximal effect; nearly all actives have a fitted effect of over 45% in size)
# Procedure, shortened: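 Luminescence readout: firefly Luc under Gli1 response element in 3T3Gli1-Luc cells (NIH/3T3 clone). Antagonist mode, stimulation by conditioned medium; compound exposure 24hr at 37 C, 5% CO2.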
# [6] = qHTS assay to identify small molecule agonists of the androgen receptor (AR) signaling pathway in the presence of an antagonist - cell viability counter screen (AID 1259379); further: potency means the concentration at half of the fitted maximal effect; nearly all actives have a fitted effect of over 25% in size
# Procedure, shortened: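 Viability counter screen: CellTiter-Fluor fluorescence, measured in the same wells as the luciferase read-out. MDA-kb2 cells, 3,000/well, with nilutamide at 3.0uM final and compounds at 15 concentrations, 16 hr at 37C, 0% CO2.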
# [7] = qHTS assay to identify small molecule agonists of the estrogen receptor beta (ER-beta) signaling pathway - cell viability counter screen (AID 1259380); further: potency means the concentration at half of the fitted maximal effect; nearly all actives have a fitted effect of over 30% in size
# Procedure, shortened: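 Luminescence read-out (CellTiter-Glo, 30 min, room temp) taken in the same wells as the beta-lactamase reporter assay; ER-beta-UAS-bla HEK293T cells exposed to DMSO-dissolved compounds for 16 hr at 37C in 2% charcoal-stripped FBS medium.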
# [8] = qHTS assay to identify small molecule agonists of the estrogen receptor alpha (ER-alpha) signaling pathway in the presence of an antagonist - cell viability counter screen (AID 1259386);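 further: potency means the concentration at half of the fitted maximal effect; cells exposed to compounds for 22 h at 37 °C before the viability read; nearly all actives have a fitted effect of over 30% in size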
# Procedure, shortened: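 Read-out: CellTiter-Fluor fluorescence after 1hr reagent incubation, measured in the same wells as the luciferase readout. VM7Luc4E2 cells were exposed to 15 compound concentrations with 10.0nM ICI-182,780 for 22hr at 37C.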
# [9] = qHTS assay to identify small molecule antagonists of the estrogen receptor beta (ER-beta) signaling pathway - cell viability counter screen (AID 1259382); further: potency means the concentration at half of the fitted maximal effect; nearly all actives have a fitted effect of over 55% in size
# Procedure, shortened: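 Luminescent ATP read-out (CellTiter-Glo, 30 min, RT) taken in the same wells as the bla reporter assay. HEK293T ER-beta-UAS-bla cells in 2% charcoal-stripped FBS were exposed to compounds with 1nM E2 for 16 hr at 37C.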
# [10] = biological target: Thyrotropin receptor (Homo sapiens) (UniProt P16473); test: qHTS assay to identify small molecule antagonists of the thyroid stimulating hormone receptor (TSHR) signaling pathway (AID 1259385; calls by dose curve; further: nearly all actives have a fitted effect of over 20% in size; further: potency means the concentration at half of the fitted maximal effect; on activity change, negative = inhibition: on the % scale 0 is the no-effect control and ±100 the full control effect); conditions: TSHR-HEK293 cAMP HTRF, TSH-stimulated antagonist mode; activity change, negative = inhibition: at 92.4 µM (top of the series) unless noted
# Procedure, shortened: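 Antagonist mode: compound-treated TSHR-expressing HEK293 cells were stimulated with 1.5 ng/mL TSH (final) in presence of Ro20-1724 for 30 min at RT. HTRF cAMP detection after 1 h; each compound tested at 15 concentrations, triplicate.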
# [11] = qHTS assay to identify small molecule agonists or antagonists of the thyroid stimulating hormone receptor (TSHR) signaling pathway - wild type cell line counter screen (AID 1259384; calls by dose curve; further: on the % scale 0 is the no-effect control and ±100 the full control effect); conditions: HEK293 wild type, cAMP HTRF counter-screen; cAMP activity change: at 92.4 µM (top of the series), stronger effect = higher value unless noted
# Procedure, shortened: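 Counter screen in untransfected Hek293: compounds (15-point titration, triplicate) plus phosphodiesterase inhibitor Ro20-1724 added after 18 h plating; 30 min RT. Intracellular cAMP via competitive d2/cryptate immunoassay, 1 h incubation.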
# [12] = qHTS assay to identify small molecule HDAC inhibitors - cell viability counter screen (AID 1259365); further: potency means the concentration at half of the fitted maximal effect; nearly all actives have a fitted effect of over 50% in size
# Procedure, shortened: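 After overnight seeding at 1,500 cells per well, wild-type HCT-116 cultures took up compounds in DMSO for 2hr at 37 C. Viable cell content came from luminescence with CellTiter-Glo.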
# [13] = biological target: Estrogen receptor beta (Homo sapiens) (UniProt Q92731); test: qHTS assay to identify small molecule agonists of the estrogen receptor beta (ER-beta) signaling pathway (AID 1259377; active means well fitted activation curve with a large enough effect in the signal ratio in the repeat runs, not every such curve was filed as active; inconclusive means weak or mixed curves, or effect the other way; the % refers to the signal ratio; further: potency means the concentration at half of the fitted maximal effect); conditions: ER-beta-UAS-bla HEK293T, beta-lactamase FRET ratio, 16 h; activation: at 92.4 µM (top of the series) unless noted
# Procedure, shortened: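 Read-out: beta-lactamase FRET fluorescence. Cell line: ER-beta-UAS-bla HEK293T in 2% charcoal-stripped FBS. Exposure: 16 hr at 37C. Substrate step: 2 h at room temperature.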
# Tags describe the fitted curve by direction and shape or compound fluorescence and quenching.
# UniProt Q92731, sequence (Q92731 whole entry, looked up): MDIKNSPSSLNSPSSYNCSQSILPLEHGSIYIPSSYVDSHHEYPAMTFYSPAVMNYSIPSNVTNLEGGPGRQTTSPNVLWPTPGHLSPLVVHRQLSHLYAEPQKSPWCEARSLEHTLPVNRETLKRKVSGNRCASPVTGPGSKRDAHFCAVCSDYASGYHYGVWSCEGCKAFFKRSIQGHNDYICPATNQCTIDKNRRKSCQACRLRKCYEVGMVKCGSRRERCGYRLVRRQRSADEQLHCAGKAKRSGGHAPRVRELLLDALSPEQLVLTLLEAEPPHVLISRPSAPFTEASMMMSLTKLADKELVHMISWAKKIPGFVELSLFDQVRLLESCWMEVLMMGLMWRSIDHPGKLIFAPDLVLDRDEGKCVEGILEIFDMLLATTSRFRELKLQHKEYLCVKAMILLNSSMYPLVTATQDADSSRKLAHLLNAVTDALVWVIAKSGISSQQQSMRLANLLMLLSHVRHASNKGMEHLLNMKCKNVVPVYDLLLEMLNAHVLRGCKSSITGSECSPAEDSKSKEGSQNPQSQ
# UniProt P16473, sequence (P16473 whole entry, looked up): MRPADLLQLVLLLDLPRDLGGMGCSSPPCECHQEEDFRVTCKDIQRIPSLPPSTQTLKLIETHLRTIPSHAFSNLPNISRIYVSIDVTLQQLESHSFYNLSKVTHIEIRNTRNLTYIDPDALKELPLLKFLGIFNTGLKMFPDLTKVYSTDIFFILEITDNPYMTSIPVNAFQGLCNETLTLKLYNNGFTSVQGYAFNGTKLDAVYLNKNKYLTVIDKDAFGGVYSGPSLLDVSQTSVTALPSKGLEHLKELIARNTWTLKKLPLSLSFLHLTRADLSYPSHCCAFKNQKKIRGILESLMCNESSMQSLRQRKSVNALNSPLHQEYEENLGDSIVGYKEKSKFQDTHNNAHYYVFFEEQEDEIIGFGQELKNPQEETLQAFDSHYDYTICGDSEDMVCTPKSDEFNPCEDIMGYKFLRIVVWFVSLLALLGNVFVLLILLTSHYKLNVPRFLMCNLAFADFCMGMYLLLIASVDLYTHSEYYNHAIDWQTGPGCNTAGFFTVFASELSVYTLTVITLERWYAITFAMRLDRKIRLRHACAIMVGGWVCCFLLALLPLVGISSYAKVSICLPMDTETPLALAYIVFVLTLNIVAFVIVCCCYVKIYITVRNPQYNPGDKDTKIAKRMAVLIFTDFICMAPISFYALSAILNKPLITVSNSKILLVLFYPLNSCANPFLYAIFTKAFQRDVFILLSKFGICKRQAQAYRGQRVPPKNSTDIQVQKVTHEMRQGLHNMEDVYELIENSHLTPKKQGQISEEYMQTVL
structure (smiles),measurement,setting,value
Nc1cc(Cl)c(-c2cc(Cl)c(N)cc2Cl)cc1Cl,Potency,[1],"inconclusive: 61.1 µM [cytotoxic, partial curve, poor fit]"
same,Potency,[2],"inconclusive: 68.5 µM [cytotoxic, single point] and inconclusive: 68.6 µM [cytotoxic]"
same,Potency,[3],inconclusive: 21.7 µM and active: 8.63 µM
Cc1cc2c(C(C)C)c(O)c(O)c(C=O)c2c(O)c1-c1c(C)cc2c(C(C)C)c(O)c(O)c(C=O)c2c1O,Potency,[1],"inconclusive: 29.8 µM [cytotoxic, partial curve]"
same,Potency,[2],"inconclusive: 21.1 µM [cytotoxic, partial curve, poor fit]"
same,Potency,[4],"inconclusive: 23.7 µM [cytotoxic, partial curve]"
same,Potency,[5],"inconclusive: 33.5 µM [inhibitor, single point]"
same,Potency,[6],active: 29.8 µM
same,Potency,[7],active: 13.3 µM
same,Potency,[8],"inconclusive: 23.7 µM [cytotoxic, partial curve]"
CC(C)(c1cc(Br)c(OCCO)c(Br)c1)c1cc(Br)c(OCCO)c(Br)c1,Potency,[1],"inconclusive: 53.3 µM [cytotoxic, single point]"
same,Potency,[2],"inconclusive: 59.7 µM [cytotoxic, single point]"
same,Potency,[3],active: 4.75 µM
same,Potency,[7],active: 42.3 µM
same,Potency,[9],active: 53.3 µM
same,Potency,[8],active: 53.3 µM
C=C(c1ccc(C(=O)O)cc1)c1cc2c(cc1C)C(C)(C)CCC2(C)C,Potency,[1],"inconclusive: 68.6 µM [cytotoxic, single point]"
same,Potency,[2],"inconclusive: 68.6 µM [cytotoxic, single point] and inactive"
same,Potency,[4],"inconclusive: 68.6 µM [cytotoxic, single point]"
same,Potency,[5],"inconclusive: 54.5 µM [inhibitor, partial curve, poor fit]"
same,Potency,[3],"inconclusive: 68.6 µM [cytotoxic, single point] and active: 8.41 µM"
same,Potency,[6],inconclusive: 61.1 µM [cytotoxic]
same,Potency,[7],active: 34.4 µM and active: 33.5 µM
same,Potency,[9],active: 34.4 µM and active: 29.8 µM
Oc1ccc(Cl)cc1Cc1cc(Cl)ccc1O,Potency,[1],"inconclusive: 31.2 µM [cytotoxic, full curve] and inconclusive: 68.6 µM [cytotoxic] and inconclusive: 29.8 µM [cytotoxic, single point]"
same,Potency,[2],"inconclusive: 68.6 µM [cytotoxic, single point]"
same,Potency,[5],"inconclusive: 11.9 µM [inhibitor, full curve]"
same,Potency,[3],active: 17.5 µM and active: 19.3 µM and active: 23.7 µM
same,Potency,[9],"active: 27.8 µM and active: 27.3 µM and inconclusive: 18.8 µM [cytotoxic, partial curve]"
same,"activity change, negative = inhibition",[10],inconclusive: -8.81%
same,Potency,[8],"inconclusive: 31.2 µM [cytotoxic, full curve] and inconclusive: 29.8 µM [cytotoxic, single point]"
CC(C)(C)c1ccc(O)c(O)c1,Potency,[1],"inconclusive: 68.6 µM [cytotoxic, partial curve, poor fit]"
same,Potency,[2],"inconclusive: 63.2 µM [cytotoxic, partial curve] and active: 27.3 µM"
same,Potency,[5],active: 15.9 µM and active: 6.86 µM
same,Potency,[6],"inconclusive: 43.3 µM [cytotoxic, partial curve, poor fit]"
same,Potency,[7],"inconclusive: 27.3 µM [rising, single point]"
same,cAMP activity change,[11],inconclusive: -6.79%
same,Potency,[10],"inconclusive: 77 µM [falling, single point]"
same,Potency,[8],inconclusive: 63.2 µM [cytotoxic] and inconclusive: 30.6 µM [cytotoxic]
Oc1ccc2cc(SSc3ccc4cc(O)ccc4c3)ccc2c1,Potency,[1],"inconclusive: 68.6 µM [cytotoxic, partial curve, poor fit]"
same,Potency,[2],"inconclusive: 68.7 µM [cytotoxic, partial curve] and inconclusive: 48.6 µM [cytotoxic, partial curve]"
same,Potency,[4],active: 61.2 µM and active: 48.6 µM
same,Potency,[7],"inconclusive: 4.86 µM [cytotoxic, full curve, poor fit] and inconclusive: 21.7 µM [cytotoxic, full curve]"
CC(C)CCCCCCc1ccc(O)cc1,Potency,[1],active: 6.98 µM
same,Potency,[12],"inconclusive: 27.8 µM [cytotoxic, full curve, poor fit] and inconclusive: 54.5 µM [cytotoxic, single point]"
same,Potency,[2],"active: 62.2 µM and inconclusive: 68.6 µM [cytotoxic, single point]"
same,Potency,[5],active: 24.8 µM
same,Potency,[13],"inconclusive: 69.8 µM [falling, single point]"
same,Potency,[3],"inconclusive: 69.8 µM [cytotoxic, single point] and inconclusive: 2.73 µM [inhibitor, full curve]"
same,Potency,[7],active: 3.92 µM and active: 61.1 µM
same,Potency,[8],active: 27.8 µM
